Experimental data as given in article PMC4593227, “Biochemical effects of mutations in the gene encoding the alpha subunit of eukaryotic initiation factor (eIF) 2B associated with Vanishing White Matter disease” (BMC Medical Genetics, 2015).
Residue numbers refer to the chain shown, from its start. One block for each binder: values may come before it.

Legend:
[1] = biological target: T1, His6-myc-tagged Val183Phe eIF2Bα (human, UniProt Q14232 1-305, Val183Phe); assay: cell-based or functional assay
T1 sequence: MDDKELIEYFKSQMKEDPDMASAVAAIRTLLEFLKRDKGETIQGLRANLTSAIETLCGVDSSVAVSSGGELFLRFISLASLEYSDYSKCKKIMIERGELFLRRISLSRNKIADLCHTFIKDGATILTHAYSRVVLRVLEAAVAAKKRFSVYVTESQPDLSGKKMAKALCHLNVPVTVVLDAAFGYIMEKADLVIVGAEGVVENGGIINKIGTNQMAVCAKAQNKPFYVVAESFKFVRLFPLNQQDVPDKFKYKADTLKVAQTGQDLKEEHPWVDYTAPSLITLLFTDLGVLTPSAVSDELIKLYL

[2] = biological target: T1, His6-myc-tagged Val183Phe eIF2Bα; assay: pull-down; His6-myc-eIF2Bα (WT or mutant) co-expressed with myc-tagged eIF2B subunits in HEK293; ~200 μg lysate on Ni2+-NTA agarose, 1 h at 4 °C, lysis buffer (20 mM Hepes-KOH pH 7.6, 50 mM KCl, 0.5 % Triton X-100) with 20 mM imidazole; bound material blotted for myc tag, total and phospho-eIF2α; details: partners not purified
[3] = biological target: T2, His6-myc-tagged Tyr275Cys eIF2Bα (human, UniProt Q14232 1-305, Tyr275Cys); assay: as above; details: partners not purified
T2 construct: eIF2Bα encoded by EIF2B1 with the VWM patient mutation Tyr275Cys; residue numbers start with the first methionine of GenBank AAI03764; also called p.Tyr275Cys; source: HEK293, transfected (calcium phosphate), in lysate
T2 sequence: T1 sequence with F183V, Y275C

decrease in eIF2B GEF activity of complexes containing Val183Phe eIF2Bα, relative to WT (100 %) [1]: ~30%
reduction in binding relative to WT [2]: ~50%
reduction in binding relative to WT [3]: ~50%
B1: myc-tagged eIF2Bε (natural protein)
chain: MAAPVVAPPGVVVSRANKRSGAGPGGSGGGGARGAEEEPPPPLQAVLVADSFDRRFFPISKDQPRVLLPLANVALIDYTLEFLTATGVQETFVFCCWKAAQIKEHLLKSKWCRPTSLNVVRIITSELYRSLGDVLRDVDAKALVRSDFLLVYGDVISNINITRALEEHRLRRKLEKNVSVMTMIFKESSPSHPTRCHEDNVVVAVDSTTNRVLHFQKTQGLRRFAFPLSLFQGSSDGVEVRYDLLDCHISICSPQVAQLFTDNFDYQTRDDFVR[no letters for about 20 residues]VSNLHMYSAVCADVIRRWVYPLTPEANFTDSTTQSCTHSRHNIYRGPEVSLGHGSILEENVLLGSGTVIGSNCFITNSVIGPGCHIGDNVVLDQTYLWQGVRVAAGAQIHQSLLCDNAEVKERVTLKPRSVLTSQVVVGPNITLPEGSVISLHPPDAEEDEDDGEFSDDSGADQEKDKVKMKGYNPAEVGAAGKGYLWKAAGMNMEEEEELQQNLWGLKINMEEESESESEQSMDSEEPDSRGGSPQMDDIKVFQNEVLGTLQRGKEENISCDNLVLEINSLKYAYNISLKEVMQVLSHVVLEFPLQQMDSPLDSSRYCALLLPLLKAWSPVFRNYIKRAADHLEALAAIEDFFLEHEALGISMAKVLMAFYQLEILAEETILSWFSQRDTTDKGQQLRKNQQLQRFIQWLKEAEEESSEDD
notes: eIF2Bε, epsilon subunit of eukaryotic initiation factor 2B, encoded by EIF2B5; one of 'the other subunits of the eIF2B complex'; also called catalytic ε-subunit; source: HEK293, transfected (calcium phosphate), in lysate

decrease in eIF2B GEF activity of complexes containing Val183Phe eIF2Bα, relative to WT (100 %) [1]: ~30%
reduction in binding relative to WT [2]: ~50%
reduction in binding relative to WT [3]: ~50%
B2: myc-tagged eIF2Bδ (natural protein)
chain: not shown
notes: eIF2Bδ, delta subunit of eukaryotic initiation factor 2B, encoded by EIF2B4; one of 'the other subunits of the eIF2B complex'; source: HEK293, transfected (calcium phosphate), in lysate
